Test results from PubChem BioAssay AID1476 (National Center for Advancing Translational Sciences (NCATS), 2009).
About 4,500 (2.2%) of roughly 200,000 compounds were called active. This list was built around the results that the source calls inconclusive (neither active nor inactive); the mix of calls is not that of the screen. The call rests on the fitted dose curve; in most records, active means well fitted inhibition curve with a large enough effect; inconclusive means small, poorly fitted or top-dose-only effect, or effect the other way; inactive means flat fitted curve, though single readings scatter. Potencies beside an inconclusive call are fits to weak or partial responses and may not hold up.

Target: Cruzipain (Trypanosoma cruzi) (UniProt P25779)
Assay: qHTS Assay for Promiscuous and Specific Inhibitors of Cruzain (without detergent); further: nearly all actives have a fitted effect of over 40% in size;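 on max response, negative = inhibition: plate controls were enzyme without inhibitor for no effect and buffer without enzyme for full effect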
Conditions: purified cruzain, Z-FR-AMC fluorescence, no detergent
Outline: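 Purified cruzain at 1.5 nM, pre-incubated 15 min with compound at room temperature in 100 mM sodium acetate pH 5.5, 5 mM DTT, 0.00005% Triton X-100. Reaction started with 2 uM Z-FR-AMC; AMC fluorescence increase over 60 s gives rate.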
Potency means the concentration at half of the fitted maximal effect; tags describe the fitted curve by direction and shape.

UniProt P25779, sequence (P25779 whole entry, looked up): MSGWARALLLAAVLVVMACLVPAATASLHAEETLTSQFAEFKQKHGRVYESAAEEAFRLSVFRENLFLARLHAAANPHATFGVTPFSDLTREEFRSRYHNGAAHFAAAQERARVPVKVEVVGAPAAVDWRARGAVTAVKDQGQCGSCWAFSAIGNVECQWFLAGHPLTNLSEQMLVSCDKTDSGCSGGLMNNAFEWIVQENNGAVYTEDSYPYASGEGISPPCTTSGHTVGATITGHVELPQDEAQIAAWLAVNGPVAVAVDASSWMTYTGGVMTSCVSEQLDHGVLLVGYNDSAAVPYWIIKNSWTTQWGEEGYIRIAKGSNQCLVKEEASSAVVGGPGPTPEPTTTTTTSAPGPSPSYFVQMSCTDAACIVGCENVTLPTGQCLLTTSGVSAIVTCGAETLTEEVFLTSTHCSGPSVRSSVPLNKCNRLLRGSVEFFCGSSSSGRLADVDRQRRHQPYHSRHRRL

| SMILES | Potency | max response, negative = inhibition |
| --- | --- | --- |
| Cc1cc2cc(C)c3nnc(SCc4ccccn4)n3c2cc1C | inconclusive: 39.8 µM [activator, single point] |  |
| O=C(NCCc1ccccc1)c1ccc2c(c1)N(Cc1ccc(F)cc1)C(=O)c1ccccc1S2 | inconclusive: 39.8 µM [inhibitor, single point] |  |
| Cc1c(CCC(=O)O)c(=O)oc2cc(O)ccc12 | inconclusive: 31.6 µM [inhibitor, single point] |  |
| CCc1nn(-c2ccccc2)c(N)c1-c1ccc(OC)c(OC)c1 | inconclusive: 3.98 µM [inhibitor, single point] |  |
| CCCCCCn1c(N2CCN(c3cccc(Cl)c3)CC2)nc2c1c(=O)[nH]c(=O)n2C | inconclusive: 20 µM [activator, single point] |  |
| CCOC(=O)c1cccc(NC(=O)CCc2c(C)nn(-c3ccc(N4CCOCC4)nn3)c2C)c1 | inconclusive: 39.8 µM [activator, single point] |  |
| CCN(C(=O)CSc1nc2ccccc2n1CC(=O)Nc1ccc(F)cc1F)c1ccccc1 | inconclusive: 20 µM [activator, single point] |  |
| CCN(C(=O)CSc1nc2n[nH]c(C)c2c(=N)n1-c1cccc(OC)c1)c1cccc(C)c1 | inconclusive: 39.8 µM [activator, single point] |  |
| Cc1cc(C)n(CCc2nc3c4ccccc4nc(N4CCN(c5ccc(F)cc5)CC4)n3n2)n1 |  | inactive: -9.39% |
| O=C(C1CCC(CNS(=O)(=O)c2cccc3nsnc23)CC1)N1CC=C(c2ccccc2)CC1 (stereo not drawn) | inconclusive: 39.8 µM [inhibitor, single point] |  |
| Cc1cn2c(=O)c(S(=O)(=O)NCc3ccccc3Cl)c(C)nc2s1 |  | inactive: 6.05% |
| COC(=O)c1cc(OC)c(OC)cc1NC(=O)Nc1ccccc1OC | inconclusive: 39.8 µM [activator, single point] |  |
| COc1ccc(CNC(=O)[C@H]2C[C@@H]2[C@H](NP(=O)(c2ccccc2)c2ccccc2)c2ccccc2)cc1OC | inconclusive: 39.8 µM [activator, single point] |  |
| O=S(=O)(c1ccccc1)c1cnn2c(C(F)(F)F)cc(-c3ccc(F)cc3)nc12 | inconclusive: 31.6 µM [activator, single point] |  |
| COc1cccc(C2c3c(oc4ccccc4c3=O)C(=O)N2c2ccccn2)c1 (stereo not drawn) | inconclusive: 0.316 µM [inhibitor, full curve, poor fit] |  |
| COc1cccc2cc(-c3nnc(SCC(=O)Nc4cc(C(F)(F)F)ccc4Cl)n3N)oc12 | inconclusive: 12.6 µM [inhibitor, single point] |  |
| CCC1=C(OC(=O)N(CC)CC)N2C(=O)OC(=NCC3CC3)[C@]2(Cc2ccccc2)[C@H]2C1=CC[C@H]1C(=O)NC(=O)[C@H]12 | inconclusive: 25.1 µM [activator, single point] |  |
| Cc1cccc2nc(CSc3nc4[nH]ncc4c(=O)n3-c3cccc(Cl)c3)cc(=O)n12 | inconclusive: 31.6 µM [activator, partial curve] |  |
| Cc1ccc(C)c2[nH]c(=O)c(CCNC(=O)c3ccc(S(=O)(=O)N(C)C)cc3)cc12 | inconclusive: 31.6 µM [activator, single point] |  |

| SMILES | Potency | max response, negative = inhibition |
| --- | --- | --- |
| Cc1cccc(NC(=O)COc2cccc3c(=O)n(C)ccc23)c1C |  | inactive: 1.5% |
| CCCc1cc(=O)[nH]c(Nc2cc(Cl)ccc2OC)n1 | inconclusive: 31.6 µM [inhibitor, single point] |  |
| COc1ccc(-c2cc(-c3ccccc3)c(C#N)c(SCC(=O)Nc3ncc(C)s3)n2)cc1 | inconclusive: 5.01 µM [inhibitor, full curve] |  |
| Cc1nn(-c2ccc(N3CCCCC3)nn2)c(C)c1CCC(=O)NCc1ccc(Cl)cc1 | inconclusive: 39.8 µM [activator, single point] |  |
| Cn1c(=O)c(-c2cc(F)cc(F)c2)nc2cnc(Nc3ccccc3)nc21 | inconclusive: 39.8 µM [inhibitor, single point] |  |
| N#CCC(=N)N1CCN(c2ccccc2Cl)CC1 | active: 25.1 µM |  |
| O=C(Nc1nc(-c2ccc3ccccc3c2)cs1)C1CCN(S(=O)(=O)c2cccs2)CC1 | active: 3.16 µM |  |
| O=c1cc(-c2ccccc2)c2ccc3c(c2o1)CN(Cc1ccccc1)CO3 | inconclusive: 31.6 µM [inhibitor, single point] |  |
| O=S(=O)(Nc1nc2ccccc2nc1N1CCN(c2ccccn2)CC1)c1ccc(Cl)cc1 | inconclusive: 39.8 µM [inhibitor, single point] |  |
| CC(NC(=O)NC(N)=O)(C(F)(F)F)C(F)(F)F |  | inactive: -10.9% |
| COc1ccc(Nc2nc(-c3c[nH]c4ccccc34)cs2)cc1 | inconclusive: 39.8 µM [inhibitor, single point] |  |
| COc1ccc(C2CC(=O)N(Cc3ccccc3)c3c2c(C)nn3-c2nc(C)cc(C)n2)c(OC)c1 (stereo not drawn) |  | inactive: 21.6% |
| CC(C)C[C@@H](CC(=O)N[C@@H](CCC(=O)O)CC(=O)O)NC(=O)[C@@H]1CCCC[C@H]1NC(=O)C[C@H](CCCN)NC(=O)C[C@H](CO)NC(=O)[C@@H]1CCCC[C@H]1N |  | inactive: 10.8% |
| COc1ccc(OC)c2[nH]c(=O)c(CCNC(=O)c3ccc(S(=O)(=O)N4CCCCC4)cc3)cc12 | inconclusive: 39.8 µM [activator, single point] |  |
| CCOc1cc(C(=O)NCCN2C(=O)S/C(=C\c3cccnc3)C2=O)cc(OCC)c1OCC | inconclusive: 39.8 µM [activator, single point] |  |
| C/C(CC(=O)Nc1ccc(C)c(Cl)c1)=N\NC(=O)Cc1ccccc1 |  | inactive: 11.4% |
| Cc1ccccc1CNC(=O)Nc1ccc2c(c1)N(C)C(=O)c1ccccc1S2 | inconclusive: 3.98 µM [activator, single point] |  |
| Cn1c(=O)oc2cc(S(=O)(=O)N3CCC(C(=O)N4CCN(c5ccc(Cl)cc5)CC4)CC3)ccc21 | inconclusive: 10 µM [activator, partial curve] |  |
| CCOc1ccc(C2C=C(c3ccc(C)cc3)Nc3nnnn32)cc1 (stereo not drawn) |  | inactive: -12.7% |
